# Measured values as given in the supplement of paper PMC8728848.
# This is one part of the list.
# How the values were obtained:
# Test in all cases: glycan array binding signal (z-score within array); higher = stronger binding
# Settings in all cases: glycan notation: IUPAC condensed, linker removed
# [1] = molecular target: Gal(b1-4)GlcNAc(b1-3)Gal(b1-4)GlcNAc(b1-3)Gal(b1-4)GlcNAc(b1-3)Gal(b1-4)GlcNAc(b1-2)Man(a1-3)[Gal(b1-4)GlcNAc(b1-3)Gal(b1-4)GlcNAc(b1-3)Gal(b1-4)GlcNAc(b1-3)Gal(b1-4)GlcNAc(b1-2)Man(a1-6)]Man(b1-4)GlcNAc(b1-4)[Fuc(a1-6)]GlcNAc
# Method in brief: (§1)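 Columns mapping to the same glycan were averaged after glycan names were converted to IUPAC-condensed notation. The data come from 3228 arrays in the Consortium for Functional Glycomics database, limited to those with an available protein sequence. Binding is reported as a within-array Z-score averaged across arrays of one protein sequence and across linkers.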
# [2] = molecular target: Gal(b1-4)GlcNAc(b1-3)Gal(b1-4)GlcNAc(b1-3)Gal(b1-4)GlcNAc(b1-3)Gal(b1-4)GlcNAc(b1-2)[Gal(b1-4)GlcNAc(b1-3)Gal(b1-4)GlcNAc(b1-3)Gal(b1-4)GlcNAc(b1-3)Gal(b1-4)GlcNAc(b1-6)]Man(a1-6)[Gal(b1-4)GlcNAc(b1-3)Gal(b1-4)GlcNAc(b1-3)Gal(b1-4)GlcNAc(b1-3)Gal(b1-4)GlcNAc(b1-2)Man(a1-3)]Man(b1-4)GlcNAc(b1-4)[Fuc(a1-6)]GlcNAc
# Method in brief: as §1
# [3] = molecular target: Gal(b1-4)GlcNAc(b1-3)Gal(b1-4)GlcNAc(b1-3)Gal(b1-4)GlcNAc(b1-3)Gal(b1-4)GlcNAc(b1-3)Gal(b1-4)GlcNAc(b1-2)Man(a1-3)[Gal(b1-4)GlcNAc(b1-3)Gal(b1-4)GlcNAc(b1-3)Gal(b1-4)GlcNAc(b1-3)Gal(b1-4)GlcNAc(b1-3)Gal(b1-4)GlcNAc(b1-2)Man(a1-6)]Man(b1-4)GlcNAc(b1-4)GlcNAc
# Method in brief: as §1
# [4] = molecular target: Gal(b1-4)GlcNAc(b1-3)Gal(b1-4)GlcNAc(b1-3)Gal(b1-4)GlcNAc(b1-3)Gal(b1-4)GlcNAc(b1-3)Gal(b1-4)GlcNAc(b1-2)Man(a1-3)[Gal(b1-4)GlcNAc(b1-3)Gal(b1-4)GlcNAc(b1-3)Gal(b1-4)GlcNAc(b1-3)Gal(b1-4)GlcNAc(b1-3)Gal(b1-4)GlcNAc(b1-2)Man(a1-6)]Man(b1-4)GlcNAc(b1-4)[Fuc(a1-6)]GlcNAc
# Method in brief: as §1
# [5] = molecular target: Gal(b1-4)GlcNAc(b1-3)Gal(b1-4)GlcNAc(b1-3)Gal(b1-4)GlcNAc(b1-3)Gal(b1-4)GlcNAc(b1-3)Gal(b1-4)GlcNAc(b1-2)[Gal(b1-4)GlcNAc(b1-3)Gal(b1-4)GlcNAc(b1-3)Gal(b1-4)GlcNAc(b1-3)Gal(b1-4)GlcNAc(b1-3)Gal(b1-4)GlcNAc(b1-6)]Man(a1-6)[Gal(b1-4)GlcNAc(b1-3)Gal(b1-4)GlcNAc(b1-3)Gal(b1-4)GlcNAc(b1-3)Gal(b1-4)GlcNAc(b1-3)Gal(b1-4)GlcNAc(b1-2)Man(a1-3)]Man(b1-4)GlcNAc(b1-4)[Fuc(a1-6)]GlcNAc
# Method in brief: as §1
# [6] = molecular target: Gal(b1-4)GlcNAc(b1-3)Gal(b1-4)GlcNAc(b1-3)Gal(b1-4)GlcNAc(b1-3)Gal(b1-4)GlcNAc(b1-3)Gal(b1-4)GlcNAc(b1-3)Gal(b1-4)GlcNAc(b1-2)Man(a1-3)[Gal(b1-4)GlcNAc(b1-3)Gal(b1-4)GlcNAc(b1-3)Gal(b1-4)GlcNAc(b1-3)Gal(b1-4)GlcNAc(b1-3)Gal(b1-4)GlcNAc(b1-3)Gal(b1-4)GlcNAc(b1-2)Man(a1-6)]Man(b1-4)GlcNAc(b1-4)GlcNAc
# Method in brief: as §1
# [7] = molecular target: Gal(b1-4)GlcNAc(b1-3)Gal(b1-4)GlcNAc(b1-3)GalNAc
# Method in brief: as §1
# [8] = molecular target: Gal(b1-4)GlcNAc(b1-3)Gal(b1-4)GlcNAc(b1-3)[Gal(b1-4)GlcNAc(b1-3)Gal(b1-4)GlcNAc(b1-6)]GalNAc
# Method in brief: as §1
# [9] = molecular target: Gal(b1-4)GlcNAc(b1-3)Gal(b1-4)GlcNAc(b1-6)[Gal(b1-3)]GalNAc
# Method in brief: as §1
# [10] = molecular target: Gal(b1-4)GlcNAc(b1-3)Gal(b1-4)[Fuc(a1-3)]GlcNAc(b1-3)Gal(b1-4)[Fuc(a1-3)]GlcNAc
# Method in brief: as §1
# [11] = molecular target: Gal(b1-4)GlcNAc(b1-3)GalNAc
# Method in brief: as §1
# [12] = molecular target: Gal(b1-4)GlcNAc(b1-3)[Fuc(a1-3)GlcNAc(b1-6)]Gal(b1-4)Glc
# Method in brief: as §1
# [13] = molecular target: Gal(b1-4)GlcNAc(b1-3)[Gal(b1-4)GlcNAc(b1-6)]Gal(b1-4)GlcNAc
# Method in brief: as §1
# [14] = molecular target: Gal(b1-4)GlcNAc(b1-3)[GlcNAc(b1-6)]Gal(b1-4)GlcNAc
# Method in brief: as §1
# [15] = molecular target: Gal(b1-4)GlcNAc(b1-6)Gal(b1-4)GlcNAc
# Method in brief: as §1
# [16] = molecular target: Gal(b1-4)GlcNAc(b1-6)GalNAc
# Method in brief: as §1
# [17] = molecular target: Gal(b1-4)GlcNAc(b1-6)[Gal(b1-3)]GalNAc
# Method in brief: as §1
# [18] = molecular target: Gal(b1-4)GlcNAc(b1-6)[Gal(b1-4)GlcNAc(b1-3)]GalNAc
# Method in brief: as §1
# Gal(b1-4)GlcNAc6P = molecular target: Gal(b1-4)GlcNAc6P
# Method in brief: as §1
# Gal(b1-6)Gal = molecular target: Gal(b1-6)Gal
# Method in brief: as §1
# Gal3S(b1-3)GalNAc = molecular target: Gal3S(b1-3)GalNAc
# Method in brief: as §1
# Gal3S(b1-3)GlcNAc = molecular target: Gal3S(b1-3)GlcNAc
# Method in brief: as §1
# [19] = molecular target: Gal3S(b1-3)[Fuc(a1-4)]GlcNAc
# Method in brief: as §1
# Gal3S(b1-4)Glc = molecular target: Gal3S(b1-4)Glc
# Method in brief: as §1
# Gal3S(b1-4)Glc6S = molecular target: Gal3S(b1-4)Glc6S
# Method in brief: as §1
# Gal3S(b1-4)GlcNAc = molecular target: Gal3S(b1-4)GlcNAc
# Method in brief: as §1
# [20] = molecular target: Gal3S(b1-4)[Fuc(a1-3)]Glc6S
# Method in brief: as §1
# [21] = molecular target: Gal3S(b1-4)[Fuc(a1-3)]GlcNAc
# Method in brief: as §1
# [22] = molecular target: Gal3S(b1-4)[Fuc(a1-3)]GlcNAc6S
# Method in brief: as §1
# Gal3S4S(b1-4)GlcNAc = molecular target: Gal3S4S(b1-4)GlcNAc
# Method in brief: as §1
# Gal3S6S(b1-4)GlcNAc = molecular target: Gal3S6S(b1-4)GlcNAc
# Method in brief: as §1
# Gal3S6S(b1-4)GlcNAc6S = molecular target: Gal3S6S(b1-4)GlcNAc6S
# Method in brief: as §1
# Gal4S(b1-4)GlcNAc = molecular target: Gal4S(b1-4)GlcNAc
# Method in brief: as §1
# Gal4S6S(b1-4)GlcNAc = molecular target: Gal4S6S(b1-4)GlcNAc
# Method in brief: as §1
# Gal6P(b1-4)GlcNAc = molecular target: Gal6P(b1-4)GlcNAc
# Method in brief: as §1
# Gal6S(b1-3)GlcNAc = molecular target: Gal6S(b1-3)GlcNAc
# Method in brief: as §1
# Gal6S(b1-3)GlcNAc6S = molecular target: Gal6S(b1-3)GlcNAc6S
# Method in brief: as §1
# Gal6S(b1-4)Glc = molecular target: Gal6S(b1-4)Glc
# Method in brief: as §1
binder,measurement,setting,value
PX9937B-bvu-524-33-524 (Bacteroides vulgatus) (protein) GTAYWKNPDQFTAFNTGLHALLREKSYNFFLLGEPRADIYGDNPIGGEASQGMERLPFNTINKENVGISNYGDMYKIINQINQMIAKTTETTILTEATQNYYLGEAYGMRAYLYFHLLRSWGDVVLYLDYTEGQNLDLSNITKGVSPATEVMEQIKKDIQASENAFGSDYSFKLGRHFWSAAATQMLKGEAYLWSGRQMNGGNSDYTIAKNAFENVKKADVGLVTSSFKDIFSFENKKNKEMIFTIHNGKDEYEMWGGYYRMRLIPAQDKMVKIYCDENGNSFVGTPDAQLNGLTQLQVRREFYFKGFRNNDTRWTTSLKAVYKKDAQGVVSYFGPITYKFQGTMLEGGSTRSFLDDFPIYRYADCLLQLAMAKVLLGEDPTEEINAVRERAYGSKYFNEHKAEIAYPNDNDPEFYTDNKWMKPDNAGALEAILKERLREFMFEGKRWYDIRLLGWDYVHQYSSAEQSRLLWPIDAGTLTNNSALKQTPGYE,glycan array binding signal (z-score),[1],1.61
same,glycan array binding signal (z-score),[2],0.204
same,glycan array binding signal (z-score),[3],8.61
same,glycan array binding signal (z-score),[4],1.41
same,glycan array binding signal (z-score),[5],1.71
same,glycan array binding signal (z-score),[6],0.187
same,glycan array binding signal (z-score),[7],0.009
same,glycan array binding signal (z-score),[8],0.138
same,glycan array binding signal (z-score),[9],3.08
same,glycan array binding signal (z-score),[10],-0.404
same,glycan array binding signal (z-score),[11],-0.259
same,glycan array binding signal (z-score),[12],-0.272
same,glycan array binding signal (z-score),[13],-0.356
same,glycan array binding signal (z-score),[14],-0.224
same,glycan array binding signal (z-score),[15],-0.538
same,glycan array binding signal (z-score),[16],0.003
same,glycan array binding signal (z-score),[17],-0.222
same,glycan array binding signal (z-score),[18],0.133
same,glycan array binding signal (z-score),Gal(b1-4)GlcNAc6P,0.028
same,glycan array binding signal (z-score),Gal(b1-6)Gal,-0.232
same,glycan array binding signal (z-score),Gal3S(b1-3)GalNAc,-0.399
same,glycan array binding signal (z-score),Gal3S(b1-3)GlcNAc,-0.31
same,glycan array binding signal (z-score),[19],-0.263
same,glycan array binding signal (z-score),Gal3S(b1-4)Glc,-0.024
same,glycan array binding signal (z-score),Gal3S(b1-4)Glc6S,-0.203
same,glycan array binding signal (z-score),Gal3S(b1-4)GlcNAc,-0.174
same,glycan array binding signal (z-score),[20],-0.366
same,glycan array binding signal (z-score),[21],-0.276
same,glycan array binding signal (z-score),[22],0.317
same,glycan array binding signal (z-score),Gal3S4S(b1-4)GlcNAc,0.159
same,glycan array binding signal (z-score),Gal3S6S(b1-4)GlcNAc,-0.32
same,glycan array binding signal (z-score),Gal3S6S(b1-4)GlcNAc6S,0.045
same,glycan array binding signal (z-score),Gal4S(b1-4)GlcNAc,-0.361
same,glycan array binding signal (z-score),Gal4S6S(b1-4)GlcNAc,-0.381
same,glycan array binding signal (z-score),Gal6P(b1-4)GlcNAc,-0.419
same,glycan array binding signal (z-score),Gal6S(b1-3)GlcNAc,-0.232
same,glycan array binding signal (z-score),Gal6S(b1-3)GlcNAc6S,0.218
same,glycan array binding signal (z-score),Gal6S(b1-4)Glc,-0.101
